Results: the supplement of paper PMC10986608
Some of the results follow. Most values come without repeats; read them as rough.

System: Candida albicans DPL-15
Assay: growth (OD600) after compound treatment (apparently relative to screen median) (relative growth (fraction; screen median 1.02)); DPL-15 is a caspofungin-resistant clinical isolate; higher = more fungal growth (less antifungal activity)
Conditions: 25 µM; RPMI 1640; 48 h; 30 °C

Row | Structure (SMILES) | growth
1 | COC(=O)C1=C(C)N(Cc2cccc(Cl)c2)C(=S)NC1c1cccc(Cl)c1 (centres undefined) | 0.881
2 | C=CCN1C(=O)C2=C(C(C(C)C)=NCCN2)C1c1ccc(F)cc1 (centres undefined) | 0.986
3 | CO[C@@H]1[C@H](O)CC[C@]2(O)CN(c3c(C)noc3C)[C@](C)([C@H](O)CC=C(C)C)[C@@H]12 | 1.09
4 | Cc1cc(O)c2c3c4c(cc(O)c13)O[C@@]1(c3ccc([N+](=O)[O-])cc3)O[C@H](C)C[C@H]1[C@H]4OC2=O | 0.98
5 | CC(C)Cc1n[nH]c2c1C(c1ccc(F)cc1)N(c1ccc(C(=O)O)cc1)C2=O (centres undefined) | 0.977
6 | CC1=NCCNC2=C1C(c1ccc(C)cc1)N(Cc1ccccc1)C2=O (centres undefined) | 0.993
7 | CC(=O)C1=C2C=CCCN2C(=O)NC1c1ccc(Cl)cc1 (centres undefined) | 0.915
8 | CC1=C(C#N)C(c2ccccc2)NC(=O)N1 (centres undefined) | 1.03
9 | COc1c(F)cccc1C1NC(=O)N2CCC=CC2=C1C(C)=O (centres undefined) | 0.974
10 | CC(C)Cc1n[nH]c2c1C(c1ccc(F)cc1)N(c1ccccn1)C2=O (centres undefined) | 1.06
11 | CC(=O)OC[C@H]1O[C@H](C#Cc2ccccc2C(F)(F)F)C=C[C@@H]1OC(C)=O | 0.805
12 | CC(=O)C1=C(C)N(Cc2ccccc2)C(=S)NC1c1ccccc1Cl (centres undefined) | 0.941
13 | C=CCN1C(=O)C2=C(C(c3ccccc3)=NCCN2C)C1c1ccc2c(c1)OCO2 (centres undefined) | 1.02
14 | COC(=O)c1[nH]c2ccc(OC)cc2c1[C@]12CCN(C(=O)Cc3cccc(F)c3F)[C@H]1Nc1ccccc12 | 1.15
15 | O=S(=O)(NCC(F)(F)F)N(Cc1ccccc1)Cc1ccccc1 | 1.15
16 | CN1CCN=C(c2ccccc2)C2=C1C(=O)NC2c1ccc2c(c1)OCO2 (centres undefined) | 0.888
17 | CS(=O)(=O)Oc1c(C[C@@]23CCCCC2=Nc2ccc(Cl)cc23)occc1=O | 1.08
18 | COc1cc2c(cc1OC)CN(CCc1ccccc1)CC2 | 1.08
19 | COC(=O)C/C=C/[C@H](C)[C@@H](NC(=O)[C@H](COCc1ccccc1)NC(=O)OC(C)(C)C)c1ccccc1 | 0.966
20 | CCCCCCCc1cc(Cl)cc(Cl)n1 | 1.05
21 | COC(=O)NC(c1ccc2c(c1)OCO2)C(C(=O)OC)C(=O)OC (centres undefined) | 1.02
22 | COC(=O)Cc1nnn2c1[C@@H](C)[C@@H](c1ccccc1Br)O[C@@H](C)C2 | 0.969
23 | CO[C@@]1(c2ccc(Cl)cc2)Oc2ccc(Cl)cc2C(=O)[C@@]12OCC=C2C | 0.741
24 | CO[C@@H]1[C@H](O)CC[C@]2(O)CN(CCCN3CCCC3=O)[C@@H](CC=C(C)C)[C@](C)(O)[C@@H]12 | 1.1
